Some of the results follow. Most values come without repeats; read them as rough.
Columns and labels:
Test in all cases: cell count relative to DMSO control; melanoma cells; higher = more viable cells
Conditions in all cases: library dose: low library concentration; 72 h
MZ2-MEL = test system: MZ2-MEL
MeWo = test system: MeWo
RPMI7951 = test system: RPMI7951
RVH-421 = test system: RVH-421
SkMel28 = test system: SkMel28
SkMel2 = test system: SkMel2
SkMel30 = test system: SkMel30
UACC62 = test system: UACC62
SkMel5 = test system: SkMel5
UACC257 = test system: UACC257
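Also: cell number obtained by counting DAPI-stained nuclei in high-throughput microscope images with image analysis software, screen run in 1,536-well plates.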

Compound | cell count (MZ2-MEL) | cell count (MeWo) | cell count (RPMI7951) | cell count (RVH-421) | cell count (SkMel28) | cell count (SkMel2) | cell count (SkMel30) | cell count (UACC62) | cell count (SkMel5) | cell count (UACC257)
C[C@@H](Oc1cc(-c2cnn(C3CCNCC3)c2)cnc1N)c1c(Cl)ccc(F)c1Cl [Crizotinib] + O=C(O)[C@@H]1[O][Sb](=[O])([O][Sb]2(=[O])[O][C@H]([C@H](O)CO)[C@H](O)[C@H](C(=O)O)[O]2)[O][C@H]([C@H](O)CO)[C@@H]1O [stibogluconate] (first compound 0.2 µM, partner dose 2 µM) | 97.9% | 108% | 117% | 99.3% | 97.5% | 92.2% | 99.6% | 93.4% | – | –
C=CCNC1=C2C[C@@H](C)C[C@H](OC)[C@H](O)[C@@H](C)/C=C(\C)[C@H](OC(N)=O)[C@@H](OC)/C=C\C=C(/C)C(=O)NC(=CC1=O)C2=O [Tanespimycin] + CCc1ccc(CCOc2ccc(CC3SC(=O)NC3=O)cc2)nc1 [pioglitazone] (first compound 0.002 µM, partner dose 2 µM) | 109% | 104% | 98.9% | 98.9% | 97.9% | 96.9% | 129% | 79.9% | 94% | 99.2%
CS(=O)(=O)CCNCc1ccc(-c2ccc3ncnc(Nc4ccc(OCc5cccc(F)c5)c(Cl)c4)c3c2)o1 [lapatinib] + Nc1nc(F)nc2c1ncn2[C@@H]1O[C@H](CO)[C@@H](O)[C@@H]1O [fludarabine] (first compound 0.8 µM, partner dose 0.2 µM) | 98.9% | 43.2% | 95.2% | 94.3% | 88.1% | 11.7% | 20.9% | 88.1% | – | –
C=CCNC1=C2C[C@@H](C)C[C@H](OC)[C@H](O)[C@@H](C)/C=C(\C)[C@H](OC(N)=O)[C@@H](OC)/C=C\C=C(/C)C(=O)NC(=CC1=O)C2=O [Tanespimycin] + COCC[n+]1c2c(n(Cc3cnccn3)c1C)C(=O)c1ccccc1C2=O [YM155] (first compound 0.002 µM, partner dose 0.0004 µM) | 65% | 106% | 89.1% | 91.5% | 97.8% | 92.2% | 105% | 91.3% | – | –
CNC(=O)c1cc(Oc2ccc(NC(=O)Nc3ccc(Cl)c(C(F)(F)F)c3)cc2)ccn1 [sorafenib] + Nc1nc(F)nc2c1ncn2[C@@H]1O[C@H](CO)[C@@H](O)[C@@H]1O [fludarabine] (first compound 0.4 µM, partner dose 0.2 µM) | 94.2% | 48.4% | 83% | 103% | 85.8% | 14.3% | 27.2% | 80.9% | – | –
C[C@@H](Oc1cc(-c2cnn(C3CCNCC3)c2)cnc1N)c1c(Cl)ccc(F)c1Cl [Crizotinib] + Cn1c(Nc2ccc(C(F)(F)F)cc2)nc2cc(Oc3ccnc(-c4ncc(C(F)(F)F)[nH]4)c3)ccc21 [CHIR265] (first compound 0.2 µM, partner dose 0.08 µM) | 96.9% | 76.2% | 66.6% | 55.5% | 73.4% | 92.3% | 78.5% | 57.2% | – | –
CN1CCN(c2ccc3nc(-c4c(N)c5c(F)cccc5[nH]c4=O)[nH]c3c2)CC1 [Dovitinib] + OCc1c[nH]c2ccccc12 [Indole-3-carbinol] (first compound 0.1 µM, partner dose 0.8 µM) | 89.8% | 91.9% | 107% | 89.2% | 93.2% | 96.7% | 81.6% | 89% | – | –
C=CCNC1=C2C[C@@H](C)C[C@H](OC)[C@H](O)[C@@H](C)/C=C(\C)[C@H](OC(N)=O)[C@@H](OC)/C=C\C=C(/C)C(=O)NC(=CC1=O)C2=O [Tanespimycin] + Clc1ccc(Nc2nnc(Cc3ccncc3)c3ccccc23)cc1 [vatalanib] (first compound 0.002 µM, partner dose 2 µM) | 94.4% | 77.4% | 71.9% | 87.8% | 79.7% | 106% | 97.6% | 84.9% | – | –
C=CCNC1=C2C[C@@H](C)C[C@H](OC)[C@H](O)[C@@H](C)/C=C(\C)[C@H](OC(N)=O)[C@@H](OC)/C=C\C=C(/C)C(=O)NC(=CC1=O)C2=O [Tanespimycin] + CCN(CC)CCCCNc1ncc2cc(-c3cc(OC)cc(OC)c3)c(NC(=O)NC(C)(C)C)nc2n1 [PD173074] (first compound 0.002 µM, partner dose 0.1 µM) | 101% | 93.2% | 95.8% | 172% | 84.9% | 104% | 107% | 88.3% | 100% | 78.1%
CS(=O)(=O)CCNCc1ccc(-c2ccc3ncnc(Nc4ccc(OCc5cccc(F)c5)c(Cl)c4)c3c2)o1 [lapatinib] + OCc1c[nH]c2ccccc12 [Indole-3-carbinol] (first compound 0.8 µM, partner dose 0.8 µM) | 90.8% | 86.4% | 79.9% | 87.5% | 68.9% | 92.6% | 82.1% | 88.8% | – | –
CS(=O)(=O)CCNCc1ccc(-c2ccc3ncnc(Nc4ccc(OCc5cccc(F)c5)c(Cl)c4)c3c2)o1 [lapatinib] + O=C(O)c1ccc2c(c1)nc(Nc1cccc(Cl)c1)c1ccncc12 [CX4945] (first compound 0.8 µM, partner dose 0.4 µM) | 86.8% | 99.6% | 97.2% | 105% | 106% | 92.3% | 87.5% | 86.2% | – | –
CNC(=O)c1cc(Oc2ccc(NC(=O)Nc3ccc(Cl)c(C(F)(F)F)c3)cc2)ccn1 [sorafenib] + CCCS(=O)(=O)Nc1ccc(F)c(C(=O)c2c[nH]c3ncc(Cl)cc23)c1F [PLX4720] (first compound 0.4 µM, partner dose 0.08 µM) | 96% | 90.7% | 85.9% | 108% | 67.3% | 90.4% | 114% | 69.4% | – | –
CS(=O)(=O)CCNCc1ccc(-c2ccc3ncnc(Nc4ccc(OCc5cccc(F)c5)c(Cl)c4)c3c2)o1 [lapatinib] + Clc1ccc(Nc2nnc(Cc3ccncc3)c3ccccc23)cc1 [vatalanib] (first compound 0.8 µM, partner dose 2 µM) | 95.3% | 84.6% | 84.7% | 113% | 106% | 87.3% | 86.8% | 95% | – | –
CN1CCN(c2ccc3nc(-c4c(N)c5c(F)cccc5[nH]c4=O)[nH]c3c2)CC1 [Dovitinib] + C=CCNC1=C2C[C@@H](C)C[C@H](OC)[C@H](O)[C@@H](C)/C=C(\C)[C@H](OC(N)=O)[C@@H](OC)/C=C\C=C(/C)C(=O)NC(=CC1=O)C2=O [Tanespimycin] (first compound 0.1 µM, partner dose 0.002 µM) | 97.4% | 89.5% | 105% | 119% | 82.8% | 101% | 66.4% | 96.4% | – | –
C[C@@H](Oc1cc(-c2cnn(C3CCNCC3)c2)cnc1N)c1c(Cl)ccc(F)c1Cl [Crizotinib] + O=C(O)c1ccc2c(c1)nc(Nc1cccc(Cl)c1)c1ccncc12 [CX4945] (first compound 0.2 µM, partner dose 0.4 µM) | 89.6% | 91.2% | 110% | 81.2% | 84.6% | 99.2% | 105% | 98.5% | – | –
CNC(=O)c1cc(Oc2ccc(NC(=O)Nc3ccc(Cl)c(C(F)(F)F)c3)cc2)ccn1 [sorafenib] + CC(=O)c1c(C)c2cnc(Nc3ccc(N4CCNCC4)cn3)nc2n(C2CCCC2)c1=O [palbociclib] (first compound 0.4 µM, partner dose 0.04 µM) | 80.7% | 80.1% | 76% | 98.9% | 93% | 91% | 102% | 83.5% | – | –
C[C@@H](Oc1cc(-c2cnn(C3CCNCC3)c2)cnc1N)c1c(Cl)ccc(F)c1Cl [Crizotinib] + CC(=O)c1c(C)c2cnc(Nc3ccc(N4CCNCC4)cn3)nc2n(C2CCCC2)c1=O [palbociclib] (first compound 0.2 µM, partner dose 0.04 µM) | 91.8% | 72.7% | 80.3% | 99.3% | 76.6% | 79.9% | 76.7% | 74.1% | – | –
CN1CCN(c2ccc3nc(-c4c(N)c5c(F)cccc5[nH]c4=O)[nH]c3c2)CC1 [Dovitinib] + Clc1ccc(Nc2nnc(Cc3ccncc3)c3ccccc23)cc1 [vatalanib] (first compound 0.1 µM, partner dose 2 µM) | 91.4% | 58.5% | 89.7% | 79.1% | 81.2% | 95.1% | 56.8% | 92.9% | – | –
